# Test results: the supplement of paper PMC8728848
# The other results are listed elsewhere or left out.
# B1: Gal 2 (Canis lupus) (protein)
# chain: MSGKFEVMNMDMKLGGTLKIKGKIAGDADGFVINLGQGSDKLNLHFNPRFHESVIVCNSRNWGQEQRDKHMCFSPGSEVKFTVTFENDGFKVKLPDGHQLTFPNRLGHSHLSYLGVQGGLKVSSFKIE
# Columns and labels:
# Assay in all cases: glycan array binding signal (z-score within array); higher = stronger binding
# Conditions in all cases: glycan notation: IUPAC condensed, linker removed
# Fuc(a1-2)Gal = biological target: Fuc(a1-2)Gal
# How it was run: (§1)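 Columns mapping to the same glycan were averaged after glycan names were converted to IUPAC-condensed notation. The data come from 3228 arrays in the Consortium for Functional Glycomics database, limited to those with an available protein sequence. Binding is reported as a within-array Z-score averaged across arrays of one protein sequence and across linkers.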
# Fuc(a1-2)Gal(b1-3)GalNAc = biological target: Fuc(a1-2)Gal(b1-3)GalNAc
# How it was run: as §1
# [1] = biological target: Fuc(a1-2)Gal(b1-3)GalNAc(a1-3)[Fuc(a1-2)]Gal(b1-4)Glc
# How it was run: as §1
# [2] = biological target: Fuc(a1-2)Gal(b1-3)GalNAc(a1-3)[Fuc(a1-2)]Gal(b1-4)GlcNAc
# How it was run: as §1
# [3] = biological target: Fuc(a1-2)Gal(b1-3)GalNAc(b1-3)Gal
# How it was run: as §1
# [4] = biological target: Fuc(a1-2)Gal(b1-3)GalNAc(b1-3)Gal(a1-4)Gal(b1-4)Glc
# How it was run: as §1
# [5] = biological target: Fuc(a1-2)Gal(b1-3)GalNAc(b1-4)[Neu5Ac(a2-3)]Gal(b1-4)Glc
# How it was run: as §1
# Fuc(a1-2)Gal(b1-3)GlcNAc = biological target: Fuc(a1-2)Gal(b1-3)GlcNAc
# How it was run: as §1
# [6] = biological target: Fuc(a1-2)Gal(b1-3)GlcNAc(b1-2)Man(a1-3)[Fuc(a1-2)Gal(b1-3)GlcNAc(b1-2)Man(a1-6)]Man(b1-4)GlcNAc(b1-4)GlcNAc
# How it was run: as §1
# [7] = biological target: Fuc(a1-2)Gal(b1-3)GlcNAc(b1-2)Man(a1-3)[Fuc(a1-2)Gal(b1-3)GlcNAc(b1-2)Man(a1-6)]Man(b1-4)GlcNAc(b1-4)[Fuc(a1-6)]GlcNAc
# How it was run: as §1
# [8] = biological target: Fuc(a1-2)Gal(b1-3)GlcNAc(b1-3)Gal(b1-4)Glc
# How it was run: as §1
# [9] = biological target: Fuc(a1-2)Gal(b1-3)GlcNAc(b1-3)GalNAc
# How it was run: as §1
# [10] = biological target: Fuc(a1-2)Gal(b1-3)GlcNAc(b1-3)[Fuc(a1-3)[Gal(b1-4)]GlcNAc(b1-6)]Gal(b1-4)Glc
# How it was run: as §1
# [11] = biological target: Fuc(a1-2)Gal(b1-3)GlcNAc(b1-3)[Gal(b1-4)GlcNAc(b1-6)]Gal(b1-4)Glc
# How it was run: as §1
# [12] = biological target: Fuc(a1-2)Gal(b1-3)[Fuc(a1-4)]GlcNAc
# How it was run: as §1
# [13] = biological target: Fuc(a1-2)Gal(b1-3)[Fuc(a1-4)]GlcNAc(b1-2)Man(a1-3)[Fuc(a1-2)Gal(b1-3)[Fuc(a1-4)]GlcNAc(b1-2)Man(a1-6)]Man(b1-4)GlcNAc(b1-4)GlcNAc
# How it was run: as §1
# [14] = biological target: Fuc(a1-2)Gal(b1-3)[Fuc(a1-4)]GlcNAc(b1-3)[Fuc(a1-3)[Gal(b1-4)]GlcNAc(b1-6)]Gal(b1-4)Glc
# How it was run: as §1
# [15] = biological target: Fuc(a1-2)Gal(b1-3)[Fuc(a1-4)]GlcNAc(b1-3)[Gal(b1-4)GlcNAc(b1-6)]Gal(b1-4)Glc
# How it was run: as §1
# Fuc(a1-2)Gal(b1-4)Glc = biological target: Fuc(a1-2)Gal(b1-4)Glc
# How it was run: as §1
# Fuc(a1-2)Gal(b1-4)Glc6S = biological target: Fuc(a1-2)Gal(b1-4)Glc6S
# How it was run: as §1
# Fuc(a1-2)Gal(b1-4)GlcNAc = biological target: Fuc(a1-2)Gal(b1-4)GlcNAc
# How it was run: as §1
# [16] = biological target: Fuc(a1-2)Gal(b1-4)GlcNAc(b1-2)Man(a1-3)[Fuc(a1-2)Gal(b1-4)GlcNAc(b1-2)Man(a1-6)]Man(b1-4)GlcNAc(b1-4)GlcNAc
# How it was run: as §1
# [17] = biological target: Fuc(a1-2)Gal(b1-4)GlcNAc(b1-2)Man(a1-3)[Fuc(a1-2)Gal(b1-4)GlcNAc(b1-2)Man(a1-6)]Man(b1-4)GlcNAc(b1-4)[Fuc(a1-6)]GlcNAc
# How it was run: as §1
# [18] = biological target: Fuc(a1-2)Gal(b1-4)GlcNAc(b1-2)[Fuc(a1-2)Gal(b1-4)GlcNAc(b1-4)]Man(a1-3)[Fuc(a1-2)Gal(b1-4)GlcNAc(b1-2)Man(a1-6)]Man(b1-4)GlcNAc(b1-4)GlcNAc
# How it was run: as §1
# [19] = biological target: Fuc(a1-2)Gal(b1-4)GlcNAc(b1-3)Gal(b1-4)GlcNAc
# How it was run: as §1
# [20] = biological target: Fuc(a1-2)Gal(b1-4)GlcNAc(b1-3)Gal(b1-4)GlcNAc(b1-3)Gal(b1-4)GlcNAc
# How it was run: as §1
# [21] = biological target: Fuc(a1-2)Gal(b1-4)GlcNAc(b1-3)GalNAc
# How it was run: as §1
# [22] = biological target: Fuc(a1-2)Gal(b1-4)GlcNAc6S
# How it was run: as §1
# [23] = biological target: Fuc(a1-2)Gal(b1-4)[Fuc(a1-3)]GlcNAc
# How it was run: as §1
# [24] = biological target: Fuc(a1-2)Gal(b1-4)[Fuc(a1-3)]GlcNAc(b1-2)Man(a1-3)[Fuc(a1-2)Gal(b1-4)[Fuc(a1-3)]GlcNAc(b1-2)Man(a1-6)]Man(b1-4)GlcNAc(b1-4)GlcNAc
# How it was run: as §1
# [25] = biological target: Fuc(a1-2)Gal(b1-4)[Fuc(a1-3)]GlcNAc(b1-2)[Fuc(a1-2)Gal(b1-4)[Fuc(a1-3)]GlcNAc(b1-4)]Man(a1-3)[Fuc(a1-2)Gal(b1-4)[Fuc(a1-3)]GlcNAc(b1-2)Man(a1-6)]Man(b1-4)GlcNAc(b1-4)GlcNAc
# How it was run: as §1
# [26] = biological target: Fuc(a1-2)Gal(b1-4)[Fuc(a1-3)]GlcNAc(b1-3)Gal(b1-4)[Fuc(a1-3)]GlcNAc
# How it was run: as §1
# [27] = biological target: Fuc(a1-2)Gal(b1-4)[Fuc(a1-3)]GlcNAc(b1-3)Gal(b1-4)[Fuc(a1-3)]GlcNAc(b1-3)Gal(b1-4)[Fuc(a1-3)]GlcNAc
# How it was run: as §1
# [28] = biological target: Fuc(a1-2)Gal(b1-4)[Fuc(a1-3)]GlcNAc(b1-3)GalNAc
# How it was run: as §1
# Fuc(a1-2)Gal6S(b1-4)Glc = biological target: Fuc(a1-2)Gal6S(b1-4)Glc
# How it was run: as §1
# [29] = biological target: Fuc(a1-2)Gal6S(b1-4)Glc6S
# How it was run: as §1
# [30] = biological target: Fuc(a1-2)Gal6S(b1-4)GlcNAc
# How it was run: as §1
binder,measurement,setting,value
B1,glycan array binding signal (z-score),Fuc(a1-2)Gal,0.08
same,glycan array binding signal (z-score),Fuc(a1-2)Gal(b1-3)GalNAc,-0.366
same,glycan array binding signal (z-score),[1],0.099
same,glycan array binding signal (z-score),[2],-0.197
same,glycan array binding signal (z-score),[3],-0.045
same,glycan array binding signal (z-score),[4],0.103
same,glycan array binding signal (z-score),[5],-0.028
same,glycan array binding signal (z-score),Fuc(a1-2)Gal(b1-3)GlcNAc,-0.181
same,glycan array binding signal (z-score),[6],0.59
same,glycan array binding signal (z-score),[7],-0.223
same,glycan array binding signal (z-score),[8],0.017
same,glycan array binding signal (z-score),[9],-0.114
same,glycan array binding signal (z-score),[10],-0.115
same,glycan array binding signal (z-score),[11],-0.21
same,glycan array binding signal (z-score),[12],-0.074
same,glycan array binding signal (z-score),[13],-0.307
same,glycan array binding signal (z-score),[14],0.019
same,glycan array binding signal (z-score),[15],-0.12
same,glycan array binding signal (z-score),Fuc(a1-2)Gal(b1-4)Glc,-0.11
same,glycan array binding signal (z-score),Fuc(a1-2)Gal(b1-4)Glc6S,-0.159
same,glycan array binding signal (z-score),Fuc(a1-2)Gal(b1-4)GlcNAc,0.225
same,glycan array binding signal (z-score),[16],1.43
same,glycan array binding signal (z-score),[17],0.046
same,glycan array binding signal (z-score),[18],0.211
same,glycan array binding signal (z-score),[19],-0.231
same,glycan array binding signal (z-score),[20],-0.156
same,glycan array binding signal (z-score),[21],-0.289
same,glycan array binding signal (z-score),[22],-0.218
same,glycan array binding signal (z-score),[23],-0.245
same,glycan array binding signal (z-score),[24],0.795
same,glycan array binding signal (z-score),[25],0.249
same,glycan array binding signal (z-score),[26],-0.225
same,glycan array binding signal (z-score),[27],-0.218
same,glycan array binding signal (z-score),[28],0.409
same,glycan array binding signal (z-score),Fuc(a1-2)Gal6S(b1-4)Glc,-0.473
same,glycan array binding signal (z-score),[29],-0.002
same,glycan array binding signal (z-score),[30],-0.268
